Test results reported in PubChem BioAssay AID488969 (Vanderbilt High Throughput Screening Facility, 2010).
In all, about 110,000 compounds were measured (“z-score”: median about -0.1, highest 2% from about 2 on). Some of the results follow. Activity calls are given as the source filed them.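 Rule for the calls: active = z-score in the third read window above 3 or below -3; inactive = the rest.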

Target: Metabotropic glutamate receptor 8 (Rattus norvegicus) (UniProt P70579)
Experiment: rat mGluR8 modulators via GIRK flux, primary screen, cell-based, thallium flux, HTS (AID 488969)
Details: HEK293 rat mGluR8, GIRK (G protein-gated inwardly rectifying potassium channel) thallium flux, FluoZin2; at 10 µM; stronger effect = higher value; submaximal glutamate (EC20) added with thallium

Sequence of UniProt P70579 (P70579 whole entry, looked up): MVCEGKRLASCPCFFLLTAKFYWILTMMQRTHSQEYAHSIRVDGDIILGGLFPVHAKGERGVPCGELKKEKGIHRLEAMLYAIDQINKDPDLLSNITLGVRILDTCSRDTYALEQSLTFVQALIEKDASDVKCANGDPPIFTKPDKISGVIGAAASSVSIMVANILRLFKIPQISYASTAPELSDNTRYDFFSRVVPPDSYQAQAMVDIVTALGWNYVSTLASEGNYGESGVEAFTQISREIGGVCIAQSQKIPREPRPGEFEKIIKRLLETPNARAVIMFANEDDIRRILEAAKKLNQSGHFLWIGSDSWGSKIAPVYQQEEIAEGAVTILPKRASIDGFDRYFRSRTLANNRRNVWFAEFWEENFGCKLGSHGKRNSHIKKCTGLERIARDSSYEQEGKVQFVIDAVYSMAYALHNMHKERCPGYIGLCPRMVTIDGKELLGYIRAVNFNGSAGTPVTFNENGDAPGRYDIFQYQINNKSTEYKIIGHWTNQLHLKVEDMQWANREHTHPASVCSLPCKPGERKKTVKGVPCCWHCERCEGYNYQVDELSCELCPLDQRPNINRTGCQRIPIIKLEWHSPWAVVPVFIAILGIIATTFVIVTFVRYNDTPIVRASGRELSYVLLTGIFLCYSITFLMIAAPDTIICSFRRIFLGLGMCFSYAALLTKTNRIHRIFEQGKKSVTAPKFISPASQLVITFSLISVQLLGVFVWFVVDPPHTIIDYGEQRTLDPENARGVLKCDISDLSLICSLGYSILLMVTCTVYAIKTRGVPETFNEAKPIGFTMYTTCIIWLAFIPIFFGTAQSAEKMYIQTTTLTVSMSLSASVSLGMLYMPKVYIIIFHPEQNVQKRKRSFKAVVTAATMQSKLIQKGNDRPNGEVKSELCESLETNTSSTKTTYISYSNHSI

SMILES	z-score
CCCCNC(=O)CSc1nc2ccccc2c(=O)n1CC1COc2ccccc2O1 (stereo unspecified)	0.221
Fc1cccc(CN2CCN3CCCC3C2C2CCCCC2)c1 (stereo unspecified)	-0.0575
CC/C(C)=C1\SC(N2CCN(c3cccc(C(F)(F)F)c3)CC2)=NC1=O	-0.597
COC(=O)c1cc(-c2cccc(OC)c2)on1	-1.1
CCC(C)c1ccc(NC(=S)NC2CCN(Cc3ccccc3)CC2)cc1 (stereo unspecified)	0.612
O=C(COC(=O)CCNS(=O)(=O)c1ccc(Cl)cc1)NCc1ccco1	-0.456
c1ccc2c(c1)[nH]c1c(N3CCC4(CC3)OCCO4)ncnc12	0.259
Cc1cc(C(=O)CSc2nnc(Nc3ccccc3)s2)c(C)n1CC1CCCO1 (stereo unspecified)	0.0904
COC(=O)c1c(NC(=O)CSc2nnc(-c3cccnc3)n2Cc2ccco2)sc(C)c1C	-1.31
COC(=O)c1cn(-c2ccc(Cl)cc2)c(=O)c2ccccc12	-0.29
COc1cccc(Oc2ccc(N)cc2)c1	0.43
Cc1nc(CSc2nc3[nH]ncc3c(=O)n2-c2ccccc2)cs1	-0.154
O=S(=O)(c1ccccc1)c1nc(-c2ccco2)oc1Nc1ccccc1	-0.162
Cc1nc(SCCCSc2n[nH]c(C)n2)n[nH]1	-0.3
Cn1c2c(c(=O)n(C)c1=O)C(c1cccc(Br)c1)C1C(=O)c3ccccc3C1=N2 (stereo unspecified)	-0.379
CC(C)OC(=O)Cn1nnc2c(cnn2-c2ccccc2)c1=O	-1.39
Cc1cc(/C=N/n2cnnc2)c(C)n1-c1ccc(OCc2ccc(F)cc2)cc1	0.178
O=C(Cc1ccccc1[N+](=O)[O-])NCc1ccc(Cl)cc1Cl	0.0725
Cc1csc(SCC(=O)Nc2ccccn2)n1	0.464
COC(=O)[C@H](C)NC(=O)Nc1cccc(C)c1	-0.0554
Cc1cc(C(=O)N/N=C2\CCCc3ccccc32)c(C)o1	-0.271
CCOC(=O)c1c(NC(=O)CSc2nc3nc(C)cc(C)n3n2)sc(CC)c1C	-0.454
O=C(O)C1C2C=CC3(CN(Cc4ccccn4)C(=O)C13)O2 (stereo unspecified)	-0.175

SMILES	z-score
Cc1ccc(OCCN2CCN(c3nc(NCc4ccco4)c4ccccc4n3)CC2)cc1	-0.461
O=C(COc1ccc2ccccc2c1)Nc1ccc(S(=O)(=O)N2CCCCCC2)cc1	0.11
COc1ccc(N2CCN(CC(=O)Nc3nc4c(s3)CC(C)CC4)CC2)cc1 (stereo unspecified)	-0.243
COc1ccc(S(=O)(=O)N/N=C(/C)c2ccc(Cl)cc2)cc1	-0.182
Cc1nc2ccccc2n1CC(O)COCC1CC=CCC1 (stereo unspecified)	-0.209
COc1ccc2c(c1)-c1c(sn(-c3ccccc3)c1=S)C(C)(C)N2	-0.192
CCOC(=O)c1cc2c(=O)n3ccccc3nc2n(Cc2ccccc2)c1=N	-0.66
CCN(CC)CCN1C(=O)c2ccccc2NC1c1ccccc1F (stereo unspecified)	0.6
Cc1cccc(OCCn2nc(C(=O)O)c3ccccc3c2=O)c1	-0.982
N#Cc1ccc(OCc2nnc(SCC(=O)c3ccccc3)n2-c2ccccc2)cc1	-0.0763
CCOC(=O)NC1(C(F)(F)F)NC(=O)N(c2ccc(F)cc2)C1=O (stereo unspecified)	0.301
COC(=O)c1cc(-c2c(C)oc3cc(O)ccc3c2=O)c(C)o1	-0.328
CCC(=O)OCC(=O)c1c(N)n(Cc2ccccc2)c(=O)n(C)c1=O	-0.115
CC(C)CN1C(=O)C(NC(=O)C2CC2)(C(F)(F)F)C2=C1CC(C)(C)CC2=O (stereo unspecified)	-0.146
CCCc1nc2oc(C(=O)OCC)c(N)c2c2c1COC(C)(C)C2	-0.0493
CCCCC(=O)NCc1ccc(F)cc1	-0.121
CSc1ccc(/C=C(\NC(=O)c2ccc(C)cc2)C(=O)Nc2cccc(C)c2)cc1	-0.0678
Cc1ccc(Oc2ccc(N)cc2)cc1	-1.41
CC(C)c1ccc(OCC(=O)N(c2ccccn2)C2CCCCC2)cc1	-0.397
COc1ccc(N2CCN(c3ncccc3C#N)CC2)cc1	0.247
O=C(Nc1ccc2c(c1)OCO2)c1cnn2cccnc12	0.317
CCOc1ncccc1C(=O)Nc1ccc(Cl)cc1	-1.03
CCOc1ccc(N(CC(=O)NC2CCCCCC2)S(=O)(=O)c2c(C)[nH]c(=O)[nH]c2=O)cc1	-0.543

SMILES	z-score
CCOC(=O)COc1ccc(S(=O)(=O)Nc2cccc(SC)c2)cc1	-0.28
Cc1cc(C)n2cc(CSc3nnnn3C)nc2n1	0.244
Cc1csc(=N)n1-c1ccc(Cl)cc1	-0.246
COc1ccc(NC(=O)CSCc2ccccc2C)cc1	0.282
O=C(Cc1c[nH]c2ccccc12)NCc1ccc(Cl)cc1	0.348
CCCc1cc(=O)oc2cc(OCC(=O)NCc3cccs3)ccc12	-0.204
CCc1ccc(-c2nnn(Cc3nc4ccccc4s3)n2)cc1	-0.303
CC(C)Nc1nc(Oc2ccc(Cl)cc2Cl)cc(C(F)(F)F)n1	0.199
COc1ccc(OC)c(C2C(C(=O)Nc3cccnc3)=C(C)NC3=C2C(=O)CCC3)c1 (stereo unspecified)	-0.378
CC(C)COc1cc(=O)[nH]c(SCC(C)C)n1	-0.00995
CC(C)Cc1nnc(NC(=O)CSc2nc(=O)cc(N)n2-c2ccccc2)s1	0.667
CCOC(=O)c1ccc(NC(=O)Nc2ccc(F)cc2)cc1	-0.267
CCNC(=S)N/N=C/c1cccs1	-0.0561
CCCn1c(SCC(=O)NCCc2ccc(OC)c(OC)c2)nc2c1c(=O)n(C)c(=O)n2C	-0.0595
CC1OC2(C)OC(=N)C1(C#N)C(C#N)(C#N)C2c1ccccc1 (stereo unspecified)	-0.325
O=C(Nc1ccc(F)c(F)c1)c1cc(S(=O)(=O)N2CCN(c3ccccn3)CC2)ccc1F	1.13
Cc1c(Br)c(=O)oc2c(C)c(O)ccc12	-0.382
CCCNS(=O)(=O)c1ccc(OCC(=O)NCc2ccco2)cc1	0.0517
CCOC(=O)C(NCc1ccco1)(NC(=O)c1ccccc1)C(F)(F)F (stereo unspecified)	0.0176
Cc1ccc2nc(NC(=O)CCCc3nc4ccccc4s3)sc2c1	-0.0569
Oc1ccccc1C1=NCCNC(C(F)(F)C(F)F)=C1	-0.071
CCn1c(COc2ccc(C(C)C)cc2)nnc1SCC(=O)Nc1nccs1	-0.0977
O=C(NCc1ccncc1)/C(=N/O)c1ccccc1	1.14

SMILES	z-score
Cc1cc(C)n(-c2ccc(C(=O)C(C#N)c3nc4ccccc4n3C)cc2)n1 (stereo unspecified)	1
O=C(CSc1nnnn1-c1ccccc1)c1cc2ccccc2oc1=O	0.0866
COc1ccc(OCc2nn3c(-c4ccco4)nnc3s2)cc1	-0.257
CCOC(=O)C1=C(Nc2ccc(C)cc2)CC(C)(O)C(C(=O)OCC)C1c1ccccc1 (stereo unspecified)	-0.0122
O=[N+]([O-])c1ccc(NCCCNS(=O)(=O)c2ccccc2)c(Cl)c1	-0.0392
N#C/C(=C\c1c[nH]c2ccccc12)C(=O)Nc1ncc(Cc2ccc(Cl)cc2Cl)s1	-0.72
O=C(COc1ccccc1)NCC(=O)N/N=C/c1ccco1	-0.0733
CCOc1cc(NC(=S)NC)c(OCC)cc1NC(=O)c1ccco1	-0.272
Cc1ccc(SCc2cc(=O)[nH]c(Nc3nc(C)c4ccc(C)cc4n3)n2)cc1	-0.344
Cc1ccccc1NS(=O)(=O)c1ccc(F)cc1	0.00114
C=CCn1c(SCC(=O)c2cc(C)n(C(C)COC)c2C)nc2sc(C)c(C)c2c1=O (stereo unspecified)	-0.0745
CC(C)c1ccc(OCC(=O)NC(=S)Nc2ccc3c4c(cccc24)CC3)cc1	1.27
CCOC(=O)c1sc(-c2ccc(F)cc2)cc1NC(=O)Nc1ccccc1OC	-0.333
O=c1[nH]cnc2c1sc1nc(-c3ccccc3)c3c(c12)CCCC3	0.204
CCNCC(O)COCC(O)CNCC (stereo unspecified)	1.73
N#Cc1cc2c(nc1SCC(=O)O)CCCC2	0.0732
CCOC(=O)C1=C(CC)Nc2ccccc2N=C1NC(=O)Nc1ccc(Cl)c(Cl)c1	active: 5.4
COc1ccc(NS(=O)(=O)c2ccc(NC(=S)NC(=O)/C=C/c3ccc(C)cc3)cc2)nn1	-0.224
CC1(C)Cc2c(C#N)c(NCCN3CCOCC3)nc(-c3ccco3)c2CO1	-0.654
CCCC/C(C)=N/NC(=O)CN(c1ccc(Br)cc1)S(=O)(=O)c1ccccc1	-0.0503
CCCCNC(=O)CSc1nc2ccsc2c(=O)n1C1CCN(C(=O)OCC)CC1	0.12
COc1ccc(N=Cc2c(O)[nH]c3ccccc23)cc1OC	-0.383
O=C(O)CCSc1nnc(-c2ccncc2)n1-c1ccccc1	-0.527

SMILES	z-score
CCCCn1c(CN(Cc2ccccc2)Cc2ccccc2)nc2c1c(=O)n(C)c(=O)n2C	active: 3.38
CCC(Sc1nncn1C)C(=O)Nc1nnc(-c2ccc(Cl)cc2)s1 (stereo unspecified)	-0.564
COC(=O)c1ccccc1NC(=O)c1cccc(NC(=O)c2ccc(Br)o2)c1C	-0.654
CC(=O)c1c(C)[nH]c(C(=O)OCc2nnc(-c3ccccc3)o2)c1C	0.066
O=c1oc2cc(Oc3c([N+](=O)[O-])cc(C(F)(F)F)cc3[N+](=O)[O-])ccc2c2c1CCCC2	-0.476
CCOc1ccccc1NC1=C(Cl)C(=O)N(c2ccc(OC)cc2)C1=O	-0.367
c1cnc2ccc(C(c3nnnn3C3CCCC3)N3CCN4CCCC4C3)cc2c1 (stereo unspecified)	-1.43
COc1cc(S(=O)(=O)N(Cc2ccccn2)Cc2ccccc2Cl)ccc1-n1cnnn1	-1.24
CC1CCCC(C)N1NC(=O)c1ccc(Cl)c(S(N)(=O)=O)c1 (stereo unspecified)	-0.158
Fc1ccc(NC(=S)N/N=C/c2cccc(Br)c2)c(F)c1	active: 3.61
COC(=O)N/N=C(C)\C=C\c1ccco1	0.602
COC(=O)Cc1nnc(NC(=O)C(C)C)s1	0.0291
Cc1ccc(Nc2nc(N)c([N+](=O)[O-])c(NCc3ccco3)n2)cc1	-0.288
c1ccc(OCCOCCSc2ncccn2)cc1	0.944
O=C(CCc1ccccc1)Nc1cccc(NC(=O)CCc2ccccc2)c1	-0.164
Cc1cc(C)c(OCC(=O)N/N=C/c2ccc3c(c2)OCO3)c(C)c1	-0.033
Cc1c(NC(=O)CN2C(=O)NC(C)(c3ccccc3)C2=O)c(=O)n(-c2ccccc2)n1C (stereo unspecified)	0.245
CC1(C)CC(=O)C2=C(C1)N(c1ccc(F)cc1)C(N)=C(C#N)C2c1cccs1 (stereo unspecified)	-0.505
Cc1ccc(Cc2cnc(NC(=O)/C(C#N)=C/c3ccc(-c4ccc([N+](=O)[O-])cc4)o3)s2)cc1	-0.0684
